Reference: paper PMC4336329 (PLoS ONE, 2015)
Screen size: about 310,000 compounds; about 2,200 (0.71%) showed an effect of 50% or more. Effects have a minus sign here. This is one part of the list.

The molecules below were run against human ether-à-go-go-related gene (hERG) potassium channel (human, UniProt Q12809) (assay: primary screen, population patch clamp on CHO cells stably expressing hERG).
Chain of human ether-à-go-go-related gene (hERG) potassium channel (Q12809 whole entry, looked up): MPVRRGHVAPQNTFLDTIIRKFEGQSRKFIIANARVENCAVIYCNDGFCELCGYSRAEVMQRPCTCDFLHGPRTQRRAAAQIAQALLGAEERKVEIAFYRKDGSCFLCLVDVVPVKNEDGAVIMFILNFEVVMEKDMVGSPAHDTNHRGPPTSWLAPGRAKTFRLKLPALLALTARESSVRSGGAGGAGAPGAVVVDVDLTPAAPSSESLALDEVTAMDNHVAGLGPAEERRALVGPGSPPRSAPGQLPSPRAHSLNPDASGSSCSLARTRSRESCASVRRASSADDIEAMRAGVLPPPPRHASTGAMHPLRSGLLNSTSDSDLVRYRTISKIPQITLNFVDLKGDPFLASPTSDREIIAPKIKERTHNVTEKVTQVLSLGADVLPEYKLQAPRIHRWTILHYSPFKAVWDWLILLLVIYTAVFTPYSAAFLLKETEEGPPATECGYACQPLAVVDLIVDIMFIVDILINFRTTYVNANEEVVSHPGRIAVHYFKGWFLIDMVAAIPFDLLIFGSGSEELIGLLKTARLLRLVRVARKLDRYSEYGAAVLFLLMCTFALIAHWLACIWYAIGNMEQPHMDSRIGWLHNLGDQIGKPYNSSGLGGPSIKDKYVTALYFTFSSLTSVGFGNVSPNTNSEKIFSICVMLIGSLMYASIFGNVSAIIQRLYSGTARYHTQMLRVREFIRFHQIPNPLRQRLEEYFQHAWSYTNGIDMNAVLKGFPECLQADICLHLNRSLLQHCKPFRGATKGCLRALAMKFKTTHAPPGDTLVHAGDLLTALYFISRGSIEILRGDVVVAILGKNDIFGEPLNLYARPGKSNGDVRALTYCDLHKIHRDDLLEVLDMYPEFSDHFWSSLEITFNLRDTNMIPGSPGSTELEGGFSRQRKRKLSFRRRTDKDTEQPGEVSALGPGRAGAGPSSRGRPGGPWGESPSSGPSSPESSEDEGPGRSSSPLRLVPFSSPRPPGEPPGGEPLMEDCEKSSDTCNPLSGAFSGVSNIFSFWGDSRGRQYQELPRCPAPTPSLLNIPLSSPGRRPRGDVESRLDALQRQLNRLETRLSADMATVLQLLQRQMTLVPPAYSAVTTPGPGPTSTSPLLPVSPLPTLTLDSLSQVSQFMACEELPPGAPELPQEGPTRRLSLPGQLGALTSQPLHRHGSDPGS

Compound | hERG current change (%, negative = inhibition) at 1uM [%]
Cc1ccc(C(C)C)c(OCCCN2C(=O)NC(C)(C)C2=O)c1 | -2.93
CCn1c(SCC(=O)N2CCC(C)CC2)nnc1-c1ccco1 | 13.1
CCCCn1c(=O)cc(N2CCOCC2)[nH]c1=O | 8.58
Cc1ccc(NC(=O)C2OCCc3ccccc32)cc1Cl (stereo not shown) | 19.5
Cc1cccc(OCC(=O)N(Cc2ccccc2)c2c(N)n(Cc3ccccc3)c(=O)[nH]c2=O)c1 | 6.53
N#Cc1ccc(C(=O)OCC(=O)Nc2cccnc2Cl)cc1 | 1.17
CCOC(=O)c1sc(NC(=O)c2ccc(OC)cc2)nc1C | 15.9
O=C(CSc1nnc(Cc2ccccc2)o1)Nc1ccc(Br)cn1 | 15.7
COc1cc2[nH]c(=S)n(CCCN3CCOCC3)c(=O)c2cc1OC | 7.58
O=C(NCC(=O)N(CC1CCCO1)C(C(=O)NC1CCCCC1)c1ccccc1)c1cccs1 (stereo not shown) | 7.63
Cc1ccccc1C(=O)Nc1ccnn1C1CCN(CC2CC=CCC2)CC1 (stereo not shown) | -33.5
O=C(NC1CCCC1)C1CCC(=O)N1C1CCCCC1 (stereo not shown) | -8.1
CCN(CC)C(=O)CSc1ncnc2sc(-c3ccccc3)cc12 | 2.6
CCCn1c(=O)n(C)c(=O)c2c(SCC(=O)NCc3ccco3)nc(C3CC3)nc21 | 12.1
O=C(CSc1ccc(Cl)cc1)Nc1ccc(N2CCN(c3ccccc3)CC2)c(F)c1 | 11.7
CC(=O)OC1C(N2CCCCC2)c2c(ccc(/C=C/C(=O)N3CCCCC3)c2O)OC1(C)C (stereo not shown) | 8.42
Cc1ccc(C)c(NC(=O)Cn2c([N+](=O)[O-])cnc2C)c1 | 19.9
CCOC(=O)NC(=O)CSc1nc2ccc(OCC)cc2[nH]1 | 10.4
O=C(NCCN1CCCC1)C1CCN(S(=O)(=O)N2CCC3(CC2)OCCO3)CC1 | 19.1
C/C(=N\Nc1cccc(C(=O)O)c1)c1ccc2c(c1)Nc1ccccc1S2 | 6.55
O=C(CN1C(=O)C2CCCCC2C1=O)OCC(=O)c1ccc(F)cc1 (stereo not shown) | 13.9
COCC(=O)Nc1cccc(-c2ccc3nncn3n2)c1 | 15.1

Compound | hERG current change (%, negative = inhibition) at 1uM [%]
Cc1nn(-c2ccc(Cl)cc2)c(=O)c2c(C)noc12 | 11.3
CCC(C)(C)NC(=O)C1CCC(CNS(=O)(=O)c2cccc3nsnc23)CC1 (stereo not shown) | 7.14
Cc1ccc(N2C(=O)NC(=O)/C(=C\C=C\c3ccco3)C2=O)cc1 | 19.4
O=C(CS(=O)(=O)Cc1ccccc1)Nc1nnc(C(F)(F)F)s1 | 16.8
CC1CN(C)C(C)c2c1oc1ccc(N)cc21.O=C(O)/C=C/C(=O)O (stereo not shown) | -6.95
CC(NC(=O)C12CC3CC(CC(C3)C1)C2)C(=O)N/N=C/C1=C(N2CCOCC2)C(=C\c2ccccc2)/CC1 (stereo not shown) | -2.11
CCN1CCN(c2cc(C)c3cc(NC(=S)N4CCN(c5ccc(F)cc5)CC4)ccc3n2)CC1 | 9.88
Cc1ccc(C(=O)c2oc3ccc(Cl)cc3c2NC(=O)CN2CCN(C)CC2)cc1 | -6.94
Cc1ccc(S(=O)(=O)N2CCN(C(=O)CN3CCCSc4ccccc43)CC2)cc1 | 3.85
Nc1nc(Sc2ccc(C(F)(F)F)cn2)n[nH]1 | 10.7
C/C=C/c1ccc(OCC(=O)Nc2cc(C(F)(F)F)ccc2N2CCOCC2)c(OC)c1 | 15.3
COc1cc(C(=O)NNC(=O)CCOc2cccc(Br)c2)cc(OC)c1OC | -4.79
O=C(CCNS(=O)(=O)c1cccc2nsnc12)N1CC(=O)N(CCc2ccccc2)C(=O)C1 | -16.3
CC1(C)C2CCC1(CS(=O)(=O)NCc1ccc(C(=O)O)cc1)C(=O)C2 (stereo not shown) | 15.4
CN(C)S(=O)(=O)c1ccc(C(=O)NCC2CC2(Cl)Cl)cc1 (stereo not shown) | 14.4
Cc1cc(-n2cccn2)ccc1CN1CCN(C2CCCC2)C(CCO)C1 (stereo not shown) | -54.2
Cc1cc(C(=O)CSc2nc3ccc(Cl)cc3[nH]2)c(C)n1CC1CCCO1 (stereo not shown) | 21.2
CC1CCc2c(sc(NC(=O)c3ccccc3C(=O)O)c2C#N)C1 (stereo not shown) | 10.6
N#Cc1ccc(S(=O)(=O)Nc2ccc3ccccc3n2)cc1 | 6.48
O=C(O)c1ccc(NC(=S)NC(=O)C(c2ccccc2)c2ccccc2)cc1 | 5.92
N#C/C(=C\c1c[nH]c2ccccc12)C(=O)NC1CC1 | 13.8
CC(Oc1ccc(Br)cc1)C(=O)N1CCC(C(N)=O)CC1 (stereo not shown) | -17

Compound | hERG current change (%, negative = inhibition) at 1uM [%]
O=C(Nc1ccc(F)cc1F)c1cccn1-c1ncc(C(F)(F)F)cc1Cl | 14.8
CCOC(=O)c1cnc(-n2nc(C)cc2C)nc1Nc1cccc(C(C)=O)c1 | 7.48
COc1ccc(CNCc2ccccc2[N+](=O)[O-])cc1OC.O=C(O)C(=O)O | 5.99
O=C(NC(=S)Nc1ccc(CN2CCOCC2)cc1)c1ccc([N+](=O)[O-])cc1Cl | 8.62
O=C(NC1CCCC1)C(c1ccc(F)cc1)N(Cc1ccc(F)cc1)C(=O)c1ccn[nH]1 (stereo not shown) | 2.87
CCN(CC)C(=O)c1cn(CCC#N)nc1-c1ccc(F)cc1 | 0.959
O=C(CSc1ccc2nnc(-c3cccnc3)n2n1)NCc1ccco1 | -8.86
Cl.O=C(CN1CCCC1)Nc1ccc2c(c1)CCC2 | 11.1
CCC1(C)Cc2c(sc3c2c(=O)n(C)c2nnc(SCC(=O)c4ccccc4)n32)CO1 (stereo not shown) | -5.17
CC(C)(C)C1CCC(=NNC(=S)Nc2cccnc2)CC1 (stereo not shown) | 12
Cc1ccc(CCNC(=O)CN2C(=O)COc3ccc(S(=O)(=O)N4CCCCC4)cc32)cc1 | 12
Cc1cc(C)n(Cc2ccc(C(=O)NCCC3=CCCCC3)o2)n1 | 17.8
CCOC(=O)C(C)Oc1cc(Cl)c(C=O)cc1OC (stereo not shown) | 0.524
COCCNC(=O)C1Nc2ccc(C(F)(F)F)cc2C2C=CCC12 (stereo not shown) | 10
CC1CCCN(S(=O)(=O)c2cccc([N+](=O)[O-])c2)C1 (stereo not shown) | 7.56
CC(=O)Nc1ccc(NC(=O)CSC2=NS(=O)(=O)c3ccccc3N2)cc1 | 3.72
FCCCOc1ccc(/C=N/OCc2c(Cl)cccc2Cl)cc1 | 2.97
CCOC(=O)c1ccc(NC=C2C(=O)OC3(CCCCC3)OC2=O)cc1 | 14.8
CCOC(=O)CCc1c(C)c2ccc(OC(C)C(=O)OCC)c(C)c2oc1=O (stereo not shown) | 6.26
CC(C)c1ccc(N(C(=O)C(F)(F)F)C(C(=O)NC2CCCCC2)c2ccncc2)cc1 (stereo not shown) | 0.463
COc1ccc(CN2C(=O)CCC2(C)C(=O)NC2CCCC2)c(OC)c1 (stereo not shown) | 2.66
Cc1ccccc1NS(=O)(=O)c1cccc(-c2nnc(-c3ccccc3)o2)c1 | -18.9

Compound | hERG current change (%, negative = inhibition) at 1uM [%]
CCCCOc1ccc(Cn2c(=O)oc3ccccc32)cc1 | 11.6
CCCCCn1c(=O)[nH]c2cc(C(=O)NCc3ccco3)ccc2c1=O | 8.89
Cl.N=C(c1cccc([N+](=O)[O-])c1)N1CCCCCC1 | 5.77
CCOC(=O)C(C)n1cnc2c(nnn2-c2ccccc2)c1=O (stereo not shown) | -4.87
C=CCNC(=S)NNc1nc2c(c(=O)[nH]1)C1(CCCC1)Cc1ccccc1-2 | 14.1
COc1cccc(Nc2nnc(SCC(=O)N3CC(=O)Nc4ccccc43)s2)c1 | 8.6
CCOC(=O)C1(Cc2ccccc2)CCCN(Cc2cccc(C(C)=O)c2)C1 (stereo not shown) | 10.4
Cc1nn(CC(=O)NCCc2ccccc2)c(=O)c2ccccc12 | 0.516
O=C(COc1ccccc1[N+](=O)[O-])Nc1ccc2c(c1)OCO2 | 11.5
C#C[C@]1(O)CC[C@H]2[C@@H]3CCC4=CC(=O)CC[C@@H]4[C@H]3CC[C@@]21C | 21
Cc1ccc(S(=O)(=O)NCCC(=O)N2CCC(Cc3ccccc3)CC2)cc1 | 6.43
Nc1nc2nn(-c3ccccc3)nc2c(=O)[nH]1 | 12.1
CC(Nc1nc(-c2ccc(F)cc2)cs1)c1nc2cc(C(F)(F)F)ccc2n1CCOCCO (stereo not shown) | 4.96
O=C(NC(Cc1ccccc1)C(=O)O)/C(=C/c1ccc([N+](=O)[O-])cc1)NC(=O)c1ccco1 (stereo not shown) | 10.8
O=C(NCc1ccc(Cl)cc1)NCC(F)(F)F | 10.9
Cc1ccccc1NC(=S)NC(NC(=O)c1ccco1)C(Cl)(Cl)Cl (stereo not shown) | -0.827
Oc1ccccc1-c1nc(NCc2cccnc2)c2ccccc2n1 | 14.8
COC(=O)Cc1c(O)ccn(Cc2cccc(C(F)(F)F)c2)c1=O | 9.56
CC(C)(CNc1ccc(C(F)(F)F)cc1[N+](=O)[O-])N1CCOCC1 | 13.4
C=CCn1c(O)c(C(CC)=NCc2ccco2)c(=O)[nH]c1=O | 2.16
c1ccc(CC2CCCCN2)cc1 (stereo not shown) | 9.57
Brc1ccc(-c2csc(N3CCCCCC3)n2)cc1 | 11.5
